Data from US20220378889A1, “NEO-EPITOPE VACCINES AND METHODS OF TREATING CANCER” (Epivax Therapeutics Inc., priority 2019, published 2022).

System: CT26 tumor cells
Assay: CT26 tumor growth and survival after vaccination (Example 1)
Conditions: sc injections at days 5, 8, 12, 15, 19, 22, 26; N=10 mice

poly-ICLC
tumor burden compared to Group 1 (mice immunized with PBS): no reduction in tumor burden
